Laboratory results published in PubChem BioAssay AID493131 (Broad Institute, 2011).
The whole screen tested about 340,000 compounds, of which about 3,300 (0.97%) were called active. The shares of active, inactive and inconclusive entries below differ from those in the screen.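 The calls were made as follows: active = mean activation above about 17%, with every replicate also reaching it (limit read from the data, passing the limit was not always enough); inconclusive = only one of the two conditions met; inactive = the rest.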

Target: Protein FosB (Mus musculus) (UniProt P13346)
Experiment: enhancers of mouse delta FosB DNA binding – biochemical, fluorescence polarization, TAMRA-CDK5 oligo, single point, primary screen (AID 493131);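 also: fluorescence polarization rise as delta FosB binds a TAMRA Cdk5 AP-1 oligo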
Details: purified delta FosB, at 25 µM, active compounds read high

UniProt P13346, sequence (P13346 whole entry, looked up): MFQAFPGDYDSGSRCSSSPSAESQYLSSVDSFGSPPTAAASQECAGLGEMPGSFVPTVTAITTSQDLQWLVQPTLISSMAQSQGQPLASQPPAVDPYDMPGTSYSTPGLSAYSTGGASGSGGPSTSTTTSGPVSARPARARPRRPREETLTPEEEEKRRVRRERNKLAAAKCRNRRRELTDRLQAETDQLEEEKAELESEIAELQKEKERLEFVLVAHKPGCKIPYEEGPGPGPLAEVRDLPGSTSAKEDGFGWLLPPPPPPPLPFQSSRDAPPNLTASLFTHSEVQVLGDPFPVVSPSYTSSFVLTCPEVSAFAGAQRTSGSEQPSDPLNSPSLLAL

| SMILES | activation |
| --- | --- |
| C/C(=N\N1CCCCC1c1cccnc1)c1c(O)n(C2CCCCC2)c(=S)[nH]c1=O (configuration not stated) | inconclusive: 20.5% |
| CN1[C@@H]2CCC[C@H]1CC(=O)C2 | inactive: 4.96% |
| CCN(CC)C(=O)c1ccc(NC(=O)COc2ccccc2F)cc1 | inactive: -2.29% |
| OC(Cn1c2ccccc2c2ccccc21)C[n+]1cccc2ccccc21 (configuration not stated) | inconclusive: 16.3% |
| O=c1[nH]c(=S)n(C2CC2)c(O)c1/C=N/Nc1ccccc1 | inactive: -6.94% |
| O=c1[nH]c(=O)n(-c2ccc(F)cc2)c(O)c1C=Nc1ccccc1N1CCCC1 | inactive: 6.24% |
| Fc1ccc(CCNCc2cccc(Cl)c2)cc1 | inactive: -5.39% |
| Cn1c(O)c(/C=C/C=Nc2ccccc2)c(=O)n(C)c1=S | inconclusive: 18% |
| CCn1c(O)c(C=Nc2ccc(S(N)(=O)=O)cc2)c(=O)[nH]c1=S | active: 20.2% |
| CN1CN(c2ccccc2)C2(CCN(CCCSc3ccccc3NC(=O)/C=C/c3ccccc3)CC2)C1=O | inconclusive: 19.8% |
| Cc1ccc(-n2c(O)c(/C=N/N3CCCCC3c3cccnc3)c(=O)[nH]c2=S)cc1 (configuration not stated) | inconclusive: 17.2% |
| CN(C)c1ccc(/C=C2\C(=O)NC(=O)N(Cc3ccc(F)cc3)C2=O)cc1 | inconclusive: 17.5% |
| C=CCN1C(=O)/C(=C/c2ccc(N3CCOCC3)o2)C(=O)NC1=S | inactive: -3.75% |
| Cc1cc(NC(=O)COC(=O)c2c(C)nn(Cc3ccccc3)c2Cl)no1 | inconclusive: 21.5% |
| COC(=O)C1=C(c2cccc(OCc3ccccc3)c2)C[C@@H]2CC[C@H]1N2C(=O)NCc1ccc(F)cc1 | inconclusive: 29.3% |
| COC(=O)C1=CO[C@@H](C)[C@@H]2CN3CC[C@]4(C(=O)Nc5ccccc54)[C@@H]3C[C@H]12 | inactive: 0.885% |

| SMILES | activation |
| --- | --- |
| O=C1NC(=O)N(c2ccccc2)C(=O)/C1=C/C=C/c1ccco1 | inactive: -13% |
| Cc1ccc2c(c1)C1CN(C)CCC1N2C(=O)c1cn(-c2ccccc2)nc1-c1ccccc1 (configuration not stated) | inconclusive: 19.9% |
| CCCCCCCSc1cc(OC)c(CCN(C)C)cc1OC | inconclusive: 16.4% |
| COc1cc2c(ccc3c4cc(OC)c(OC)cc4c[n+](C)c23)cc1O | active: 32.9% |
| CN(C)c1ccc(/C=C/C=C/c2sc3ccccc3[n+]2C)cc1 | inconclusive: 19.5% |
| O=S1(=O)N(CCN2CC=C(c3c[nH]c4cc(F)ccc34)CC2)c2cccc3c2N1CCC3 | inconclusive: 18.1% |
| CN1CCN(c2ccc(N)cc2)CC1 | inconclusive: 19.2% |
| Cc1nonc1OCCNCCNc1ccc([N+](=O)[O-])c2cccnc12 | inconclusive: 16.2% |
| CC[N+](C)(CC)CCCCOc1ccc2c(c1)C(=O)c1cc(OCCCC[N+](C)(CC)CC)ccc1-2 | active: 49.4% |
| CCCCOC(=O)c1ccccc1C(=O)OCCCC | inactive: 7.16% |
| CCCCCCCCCCCCCCCC[N+](C)(C)C | inconclusive: 17.8% |
| Cc1ccc(/C=C2/C(=O)NC(=O)N(CCc3ccc(F)cc3)C2=O)o1 | inconclusive: 37.2% |
| Nc1c(C(=O)NCc2ccco2)c2nc3ccccc3nc2n1CCN1CCCCC1 | inconclusive: 17.6% |
| CCOC(=O)C1(c2ccccc2)CCN(CCC(=O)Nc2cccc(Br)c2)CC1 | active: 17.8% |
| CCOc1ccc(NC(=O)c2ccc(NC(=O)COC(=O)Cc3ccccc3)cc2)cc1 | inactive: -0.265% |
| CCCCCSc1cc(OC)c(CCN(C)C)cc1OC | inactive: 0.808% |
